Measurements taken from PubChem BioAssay AID488969 (Vanderbilt High Throughput Screening Facility, 2010).
Over roughly 110,000 compounds, “z-score” has its median near -0.1; the highest 2% begin near 2. The list shows a part of the results. The source made the active and inactive calls.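 How the source made its calls: active means z-score in the third read window above 3 or below -3; inactive means the rest.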

The molecules below were run against Metabotropic glutamate receptor 8 (Rattus norvegicus) (UniProt P70579) (assay: mGluR8 Gi/Go-coupled signaling modulation – cell-based, rat, thallium flux, HTS, primary screen (AID 488969)). Details: HEK293 rat mGluR8, GIRK (G protein-gated inwardly rectifying potassium channel) thallium flux, FluoZin2; at 10 µM; stronger effect = higher value; submaximal glutamate (EC20) added with thallium.
Chain of UniProt P70579 (P70579 whole entry, looked up): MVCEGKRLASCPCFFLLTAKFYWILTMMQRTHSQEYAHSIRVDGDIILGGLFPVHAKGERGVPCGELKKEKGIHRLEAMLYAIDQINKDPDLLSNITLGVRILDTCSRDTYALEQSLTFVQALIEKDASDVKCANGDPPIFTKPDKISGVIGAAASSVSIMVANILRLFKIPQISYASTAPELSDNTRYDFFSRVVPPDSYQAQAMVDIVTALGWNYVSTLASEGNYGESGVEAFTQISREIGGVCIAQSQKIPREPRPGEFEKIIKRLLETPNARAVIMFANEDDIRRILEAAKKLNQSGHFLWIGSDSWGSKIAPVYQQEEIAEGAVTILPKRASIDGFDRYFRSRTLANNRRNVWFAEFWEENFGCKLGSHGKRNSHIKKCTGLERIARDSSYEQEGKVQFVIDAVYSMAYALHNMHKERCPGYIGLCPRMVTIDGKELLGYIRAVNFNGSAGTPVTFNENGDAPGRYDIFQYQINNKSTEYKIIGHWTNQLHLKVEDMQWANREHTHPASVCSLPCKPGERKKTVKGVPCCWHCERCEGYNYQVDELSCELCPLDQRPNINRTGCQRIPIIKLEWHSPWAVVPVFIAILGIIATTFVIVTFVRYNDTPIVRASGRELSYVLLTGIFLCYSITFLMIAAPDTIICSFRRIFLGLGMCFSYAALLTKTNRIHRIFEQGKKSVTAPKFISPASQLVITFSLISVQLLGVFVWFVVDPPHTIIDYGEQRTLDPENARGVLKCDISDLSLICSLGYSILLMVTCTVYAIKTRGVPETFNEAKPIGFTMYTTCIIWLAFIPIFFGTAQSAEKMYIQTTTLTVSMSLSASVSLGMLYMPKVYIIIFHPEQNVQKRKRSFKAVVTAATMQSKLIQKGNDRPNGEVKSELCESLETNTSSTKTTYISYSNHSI

SMILES | z-score
CC(C)C(=O)Nc1ccc(C(=O)NN2C(=O)c3ccccc3C2=O)cc1 | 0.139
Cc1cccc(-c2noc(CN(C)S(=O)(=O)c3cc(Cl)ccc3Cl)n2)c1 | 0.188
Cc1ccc(C(=O)N/C(=C\c2ccco2)C(=O)NCC2CCCO2)cc1C (stereo not given) | 0.00669
O=C(CSc1nncs1)NCc1ccc2c(c1)OCO2 | -0.652
CC(=O)Nc1ccc(S(=O)(=O)NC(CC(=O)O)c2ccc(OC(C)C)cc2)cc1 (stereo not given) | -0.173
CC(C)COc1nc2ccccc2c(=O)n1OCC(=O)O | -0.148
CC(C)(C)NC(=O)c1nc2ccccc2s1 | 0.283
CC(OC(=O)c1cccc(S(=O)(=O)Nc2ccccc2F)c1)C(=O)NCc1ccc2c(c1)OCO2 (stereo not given) | 0.274
COc1ccc(S(=O)(=O)Cc2ccc(C(=O)N3CCN(C4CCCCC4)CC3)o2)cc1 | -0.503
N#C/C(=C\C=C\c1ccccc1[N+](=O)[O-])c1nc(-c2ccc3c(c2)OCO3)cs1 | 0.0159
COc1cc(/C=N/NC(=O)c2cccnc2)ccc1OCC(=O)Nc1ccc(C)cc1 | -0.0754
CCCCC(=O)Nc1ccc(Br)cn1 | 0.43
CC1(C)Nc2ccccc2N(CCC(=O)N2CCOCC2)C1=O | 1.22
COc1ccc2nc(SCC(=O)Nc3ccccc3C)[nH]c2c1 | -0.112
Clc1cccc(Cl)c1CSc1nnc2ccccn12 | 0.157
CCc1c(C)sc2nc(SCC(=O)Nc3cc(C)on3)n(CCOC)c(=O)c12 | 0.0832
C/C(=N\NC(=O)c1c(Br)c(C)nn1C)c1ccc(NC(=O)C(C)Oc2ccc(Cl)cc2C)cc1 (stereo not given) | 0.0196
O=C(CSc1nnc(-c2cccs2)n1-c1ccccc1)N1CCCc2ccccc21 | -0.111
COc1ccc(N2CCN(C(=O)CSc3nnc4n3C(C)(C)Cc3ccccc3-4)CC2)cc1 | -0.642
CCNc1nc2[nH]c(=O)c3c(c2s1)OC(N)=C(C#N)C3c1ccc(C)cc1 (stereo not given) | -0.444
CCCCN(CC)C(=O)Cc1ccc(Br)cc1 | -0.261
CN1C(=O)CC(N2CCC(c3nc4ccccc4s3)CC2)C1=O (stereo not given) | 0.317

SMILES | z-score
CN(C)c1nc(N)nc(-c2nc3ccccc3s2)n1 | 0.172
C=CCn1c(COc2cccc(C)c2)nnc1SCC(=O)NC(=O)NCc1ccco1 | 0.113
Cc1ccc2c(c1)C(c1ccccc1)N(C(=O)c1ccc(S(=O)(=O)N3CCOCC3)cc1)CC(=O)N2 (stereo not given) | -0.129
Cc1ccccc1NC(=O)/C(C#N)=C\c1ccsc1 | -0.125
CC(C)C(NC(=O)c1ccc(Cl)cc1)C(=O)NC1=NCCS1 (stereo not given) | 0.815
COCc1nnc(NS(=O)(=O)c2ccccc2)s1 | -0.0971
O=C(CN1C(=O)C2CC=CCC2C1=O)Nc1nnc(SCc2c(Cl)cccc2Cl)s1 (stereo not given) | -0.215
CC(=O)Nc1ccc(Sc2ncccc2C(=O)Nc2ccc(F)cc2)cn1 | 0.448
COc1ccc(OC)c2c1C(=O)c1ccccc1C2=O | -0.311
CC12CC(c3ccccc3O1)N(C(=O)c1ccco1)C(=S)N2c1ccc(F)cc1 (stereo not given) | -0.812
CCOC(=O)c1nn(-c2ccc(OC)cc2)c(=O)c2c(N)scc12 | -0.263
COc1ccc(CSc2nnc(C)n2N)cc1Br | 0.211
O=c1c2ccc([N+](=O)[O-])c3cccc(c32)c2nc3ccccc3n12 | 0.692
CCOC(=O)Cc1csc(NC(=O)CCCCCN2C(=O)c3ccccc3C2=O)n1 | -0.227
CCOC(=O)C1CCCN(Cc2c(F)cccc2Cl)C1 (stereo not given) | 0.0588
O=C(Nc1ccc2nc(-c3ccco3)[nH]c2c1)c1cccs1 | -0.636
c1ccc(-c2nn3c(Cn4cnc5ccccc54)nnc3s2)cc1 | -0.821
CCCCS(=O)(=O)Nc1ccc(Cc2ccncc2)cc1 | 0.0131
C/C(Cl)=C/Cn1c(N2CCCC2)nc2c1c(=O)n(C)c(=O)n2C | -0.4
CCN1C(=O)CC(N2CCOCC2)C1=O (stereo not given) | -0.403
C/C(=N\NC(=O)c1cccc(S(=O)(=O)Nc2ccccc2Cl)c1)c1ccc(-n2ccnc2)cc1 | -0.494
CCOC(=O)c1ccc(NC(=O)N(CC)CC)cc1 | 0.549

SMILES | z-score
CSc1cc(C)n(-c2ccccc2C)c(=S)c1C(C)=O | -0.00956
COCC(C)NC(=O)CSc1nc(-c2ccccc2)c(-c2ccccc2)o1 (stereo not given) | -0.279
Oc1c(C(c2cccs2)N2CCN(c3ccccc3)CC2)ccc2cccnc12 (stereo not given) | 0.313
Cc1cc(C(=O)OCC(=O)NC(C)(C)C)c2ccccc2n1 | -0.284
O=C1OCC2=C1C(c1ccc(F)cc1)Sc1ccccc1N2 (stereo not given) | -0.263
O=C(c1ccccc1Oc1ccccc1)N1CCN(c2ccccc2F)CC1 | 0.234
COCCNC(=O)c1cc(-c2cccs2)on1 | 1.01
CCOc1ccc(CNC(=S)N/N=C\c2ccc([N+](=O)[O-])cc2)cc1 | -0.0226
Cc1no[n+]([O-])c1COc1ccccc1/C=C1\NC(=S)NC1=O | -1.01
Cc1ccc(Nc2nnc(SCC(=O)Nc3ncc(C(F)(F)F)cc3Cl)s2)cc1 | -0.266
COc1ccc(-c2cc(C(=O)NCCCn3ccnc3)no2)cc1OC | -1.29
COCc1ccc(O)c2ncccc12 | -0.0472
CNc1nc(C)c(C(=O)c2ccc(Cl)cc2)s1 | -0.0829
O=c1nc2n(c3c4c(sc13)CCC4)CCC2 | 0.00701
Cc1cc(NC(=O)CCCC(=O)Nc2ccc(F)cc2)no1 | -0.204
FC(F)(F)c1cccc(N2CCN(C(=S)NC3CCCCC3)CC2)c1 | -0.131
COc1ccccc1CNC(=O)C(CC(C)C)NC(=O)C1CCC(C)CC1 (stereo not given) | -0.998
CN(C)CCN(C(=O)c1cccc(Cl)c1)c1nc2c(Cl)cccc2s1 | -0.0906
COc1ccc(S(=O)(=O)Nc2ccccc2C)cc1 | 0.0937
COc1ccc(Nc2nc(-c3ccccc3)c3ccccc3n2)cc1 | -2.27
COc1ccc(CCNC(=O)c2sc3cc(C)ccc3c2Cl)cc1 | 0.196
O=C1c2ccccc2C(=O)c2c(NCc3cccnc3)cccc21 | 0.309

SMILES | z-score
Cc1cc2c(c(=O)n1CCc1ccccc1)C(c1ccco1)C(C#N)=C(N)O2 (stereo not given) | -0.0817
CCOc1ccc(N2C(=O)c3ccc(C(=O)OCc4c(C)noc4C)cc3C2=O)cc1 | 0.255
COc1ccc(CNC(=O)Cn2nc(C(F)(F)F)c3c2CCC3)cc1 | 0.215
Cn1cccc1/C=N/n1c(-c2ccccc2)n[nH]c1=S | -0.0516
O=C(CN1CCN(c2ccccc2)CC1)Nc1ccc(-n2cnnn2)cc1 | 0.659
Cc1ccc(Oc2nc3c(c(=O)n(Cc4ccccc4F)c(=O)n3C)n2C)cc1 | -0.729
Cc1cccc(N2CCN(C(=O)COc3cccc4c3OC(C)(C)C4)CC2)c1C | -0.436
COc1ccccc1/C=C\C=N\n1c(C2CCCCC2)n[nH]c1=S | 0.31
CCc1ccc(NC(=O)C2C3C=CC(C4CC34)C2C(=O)O)cc1 (stereo not given) | -0.414
Cc1occc1-c1nnc(SCC(=O)N2CCc3ccccc32)o1 | 0.216
COc1ccccc1CN(C)C(=O)C1COc2ccccc2O1 (stereo not given) | -0.589
CN1CCN(C(=O)C(C(=O)c2ccc(F)cc2)n2ccccc2=O)CC1 (stereo not given) | 0.934
COc1ccc(Cl)cc1N(CC(=O)Nc1ccccc1SC)S(C)(=O)=O | 0.203
Cc1ccc2[nH]c(=O)c(CN(CC3CCCO3)C(=S)NCc3ccco3)cc2c1 (stereo not given) | -0.397
Cc1ccc(S(=O)(=O)n2ccc(-c3ccc(OCc4c(F)cccc4Cl)cc3)n2)cc1 | -0.318
O=C(Nc1cccc(Cl)c1)N1CCSc2cc(Cl)ccc21 | -0.148
Nc1nc(SCC(=O)Nc2ccccc2Sc2ccc(Cl)cc2)n[nH]1 | -0.434
Cn1c(N)c(C(=O)c2cc(-c3ccccn3)nc3ccccc23)c(=O)[nH]c1=O | -0.00479
CCOP(=O)(c1ccccc1)C(O)c1ccccc1 (stereo not given) | 0.189
Clc1ccccc1OCCn1ccnc1 | -0.393
CC(C)C1=NN(C(=O)c2ccccc2)C(O)(C(C)(C)C)C1 (stereo not given) | -0.195
O=C(NNC(=O)c1ccccc1)C(=O)N1CCCCC1 | 0.421

SMILES | z-score
Cc1ccc(Nc2nnc(SCC(=O)Nc3ccccc3[N+](=O)[O-])s2)cc1 | -0.00778
Cc1ccc(/C(O)=C2\C(=O)C(=O)N(c3cc(C)on3)C2c2cccc(Br)c2)cc1 (stereo not given) | -2.98
Cc1ccc(C(=O)O/N=C\c2ccc(N3CCOCC3)c([N+](=O)[O-])c2)cc1 | -0.0662
COc1ccc(CCNC(=O)Cn2cnc3c(nnn3Cc3ccc(C)cc3)c2=O)cc1OC | 0.156
CCc1c(C)sc2nc(C(C)C)nc(SCC(=O)N3CCc4ccccc4C3)c12 | 0.286
CCOC(=O)c1ccc(CS(=O)c2ccc(Cl)cc2)o1 (stereo not given) | 0.0909
COCCCn1c(CCC(=O)O)ccc1-c1ccc(F)cc1 | -0.32
O=C(CCc1ccccc1O)N/N=C/c1ccc(Sc2cccc3cccnc23)o1 | 0.341
Cc1cc(C(=O)NCc2cccs2)cs1 | 0.301
COc1ccccc1-n1c(C)cc(SC)c(C(C)=O)c1=S | -0.217
COc1ccc(/C=N/NC(=O)c2ccc3ccccc3c2)cc1OS(=O)(=O)c1ccc(NC(C)=O)cc1 | -0.25
O=C(O)C1CC(=O)N(c2ccc(OCc3c(F)cccc3Cl)cc2)C1 (stereo not given) | -0.212
COc1cc2c(cc1NC(=O)CCCN1C(=O)CCC1=O)oc1ccccc12 | -0.139
Cc1cc(C)c2c(c1)cc(C)c1nnc(SCC(=O)N3CCCc4ccccc43)n12 | 0.0302
CC1Cc2ccccc2N1C(=O)c1cnc2n(c1=O)CCS2 (stereo not given) | 0.27
Cc1c(C(=O)N2CCCCC2)oc2ccc(S(=O)(=O)N3CC(C)CC(C)C3)cc12 (stereo not given) | 0.235
CCOc1ccc(NC(=S)Nc2ccc(OCc3ccccc3)cc2)cc1 | 0.269
Cc1nc2ccccc2nc1OCC(=O)NCc1ccc2c(c1)OCO2 | -0.119
COc1cc(OC)cc(C(=O)NNC(=O)c2ccccc2Br)c1 | 1.21
CCCN1C/C(=C/c2ccc3c(c2)OCO3)C(=O)/C(=C/c2ccc3c(c2)OCO3)C1 | -0.565
CCOC(=O)CSc1nc2ccc(Nc3nc(N4CCOCC4)nc(N4CCOCC4)n3)cc2s1 | active: -3.54
CCn1c(CC(=O)Nc2ccc(C)c(Cl)c2)nnc1SCc1ccc(Cl)c(Cl)c1 | 1.63
